This is an account of results in paper PMC4242493.

The other results are listed elsewhere or left out. The list includes weakly bound sequences.

This assay has as its target MaxL homodimer (UniProt P61244). The assay is described as follows: universal protein-binding microarray (PBM). Conditions: PBS-based mixture, 10 nM His-tagged protein dimer, 2% milk, 200 ng/uL BSA, 50 ng/uL salmon testes DNA, 0.02% TX-100; detection with Alexa 488 anti-His …; high values mean tight binding; most listed sequences are background and not binding sites; double strand, one strand shown.
Chain of UniProt P61244 (P61244 whole entry): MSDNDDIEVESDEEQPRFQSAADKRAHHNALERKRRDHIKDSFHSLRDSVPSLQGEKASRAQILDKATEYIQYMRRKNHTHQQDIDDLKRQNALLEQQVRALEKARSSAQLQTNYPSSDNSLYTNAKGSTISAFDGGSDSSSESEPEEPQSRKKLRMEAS
As to GATCGTGC, the binding signal (normalized occupancy) amounted to 0.08. Turning to CAAGACTG, the binding signal (normalized occupancy) came to 0.0721.

AGCAGGTC: the binding signal (normalized occupancy) came to 0.0719. The same measure for ACGACTGA: 0.0718; for CACGGCCC: 0.0709. As to GTCCTTTA, the binding signal (normalized occupancy) came to 0.073.

Take TGGTCCAA: the binding signal (normalized occupancy) came to 0.0755. Consider CTGGATCA, for which the binding signal (normalized occupancy) came out at 0.0773. With ATTAATAC the figure was 0.0792; with AAGCGCTG, 0.067; with CGCTTGCA, 0.074. Regarding CATTCACG, the binding signal (normalized occupancy) is 0.0812.

GTCTGGTA: the binding signal (normalized occupancy) turned out to be 0.0743. The same measure for AATAAGCA: 0.0801; for ATGATAAC: 0.0796; for CACGCCGG: 0.0882.

Take AAGGAAAG: the binding signal (normalized occupancy) stood at 0.0804. Consider GGCGGTAC, for which the binding signal (normalized occupancy) came to 0.0699.

GGAGTGTA: the binding signal (normalized occupancy) came out at 0.0733. On to CCCATGGA, for which the binding signal (normalized occupancy) is 0.0846. Turning to GATGTCCC, the binding signal (normalized occupancy) is 0.0747. For the sequence CTCCGCAA, the binding signal (normalized occupancy) turned out to be 0.0684. With CCTGCCCA the figure was 0.0792; with AGATGATC, 0.0785.

On to ACAGCCGA, for which the binding signal (normalized occupancy) turned out to be 0.0725.

For CGCTTTGA, the binding signal (normalized occupancy) was 0.0709.

For the sequence ATTCATTC, the binding signal (normalized occupancy) was 0.0851.

With TATTACGA, the binding signal (normalized occupancy) was 0.0849. As for AGGAGTAA, the binding signal (normalized occupancy) came out at 0.0761. On to TACTGGCA, for which the binding signal (normalized occupancy) was found to be 0.0815. For TAGCGCAA, the binding signal (normalized occupancy) is 0.0697.

GAGATGCA: the binding signal (normalized occupancy) was found to be 0.0753. With CAGATCCA the figure was 0.0767.

CCTATCAG: the binding signal (normalized occupancy) was 0.0766.

As for CGCTACTC, the binding signal (normalized occupancy) was determined as 0.069. As for ATCATAAG, the binding signal (normalized occupancy) was 0.0883.

ATGTCTTG: the binding signal (normalized occupancy) came out at 0.0821. On to ACTGACTC, for which the binding signal (normalized occupancy) was determined as 0.0732. For AAATAGAG, the binding signal (normalized occupancy) came out at 0.0769. In the case of AAACCGGA, the binding signal (normalized occupancy) was 0.0684. With CGCGAAAC the figure was 0.0759. With CCCCATTC the figure was 0.0826; with CGGTCAAG, 0.0698; with ATTCAGTG, 0.0726. Turning to CCTGCTGC, the binding signal (normalized occupancy) turned out to be 0.0723. As to TGTACTAA, the binding signal (normalized occupancy) turned out to be 0.074.

As for AAGCACAT, the binding signal (normalized occupancy) is 0.0917. Consider ACCGGATA, for which the binding signal (normalized occupancy) turned out to be 0.0794. Consider CAGAGTCC, for which the binding signal (normalized occupancy) is 0.0713.

For TAGAGTGA, the binding signal (normalized occupancy) turned out to be 0.0703. For the sequence CATACGTC, the binding signal (normalized occupancy) was 0.0802. AAGACAAC: the binding signal (normalized occupancy) stood at 0.0774. As for ACCTTAGG, the binding signal (normalized occupancy) came out at 0.0754. For the sequence ATCCGGAG, the binding signal (normalized occupancy) was 0.0746. On to GGATAACC, for which the binding signal (normalized occupancy) turned out to be 0.077.

Consider ATCCTTCA, for which the binding signal (normalized occupancy) worked out at 0.089. Consider AGAAGTGG, for which the binding signal (normalized occupancy) was determined as 0.0765. As for CTCGTTGC, the binding signal (normalized occupancy) is 0.0774. With ACAGTCAT, the binding signal (normalized occupancy) is 0.0791. Regarding CCCCGCGG, the binding signal (normalized occupancy) turned out to be 0.0745. Consider AATCAGCT, for which the binding signal (normalized occupancy) turned out to be 0.073. With ACTATCCT the figure was 0.0757. In the case of GAATGAGC, the binding signal (normalized occupancy) worked out at 0.0771.

Regarding CTCGCGAG, the binding signal (normalized occupancy) turned out to be 0.0703. With CTTCATCA, the binding signal (normalized occupancy) was 0.0795. In the case of AAGTCGGA, the binding signal (normalized occupancy) was 0.0653. With ACTCGCTA, the binding signal (normalized occupancy) came to 0.07. On to AAGAGTAG, for which the binding signal (normalized occupancy) was found to be 0.0774. The same measure for GCGCCACC: 0.0741; for ATTGCAGA: 0.0749; for GATACCCC: 0.0835. Consider ATCTAGGC, for which the binding signal (normalized occupancy) was found to be 0.0776. With GTAATTAC, the binding signal (normalized occupancy) is 0.0776. Turning to ATGCGGGC, the binding signal (normalized occupancy) worked out at 0.0827.

Regarding GCGCTCTA, the binding signal (normalized occupancy) is 0.0696. With CATGCATA the figure was 0.0989. For CCATCCCG, the binding signal (normalized occupancy) came out at 0.0832. CATGCAAG: the binding signal (normalized occupancy) amounted to 0.0837. For AGACGCAA, the binding signal (normalized occupancy) is 0.0707. In the case of CCTTTTAA, the binding signal (normalized occupancy) amounted to 0.0683.

Take AGGTCGTC: the binding signal (normalized occupancy) was found to be 0.0672. For AAGTCTGG, the binding signal (normalized occupancy) is 0.0729. As to CTTCTCAA, the binding signal (normalized occupancy) stood at 0.076. Regarding GAAAGCAA, the binding signal (normalized occupancy) came to 0.0708.

As for GCGTCTTA, the binding signal (normalized occupancy) stood at 0.071. Regarding TAAATTCA, the binding signal (normalized occupancy) turned out to be 0.0775.

In the case of GATGATGA, the binding signal (normalized occupancy) was 0.082. For GACGTCCA, the binding signal (normalized occupancy) turned out to be 0.074.

On to GCGTCCGA, for which the binding signal (normalized occupancy) is 0.072. As for AATTGGCA, the binding signal (normalized occupancy) amounted to 0.0753. Turning to CGATATCA, the binding signal (normalized occupancy) was 0.0798. With AGCGGCCG, the binding signal (normalized occupancy) came out at 0.0648.

On to AACGAACG, for which the binding signal (normalized occupancy) came out at 0.0707. The same measure for CGATACTA: 0.0777; for ACATAACA: 0.0805; for AACGTTCC: 0.0772. On to ACTCACTG, for which the binding signal (normalized occupancy) is 0.0717. For the sequence GCCAACAC, the binding signal (normalized occupancy) came out at 0.0748. Turning to AGATCACT, the binding signal (normalized occupancy) is 0.0756. In the case of ACAATATC, the binding signal (normalized occupancy) is 0.0837. As to AGTATCTC, the binding signal (normalized occupancy) turned out to be 0.0779. On to ACTGTGAA, for which the binding signal (normalized occupancy) worked out at 0.0727. The same measure for CTAACTTA: 0.0677; for TATCAAAA: 0.0754. Consider CAATCGGA, for which the binding signal (normalized occupancy) was 0.0756. As for CTACACTA, the binding signal (normalized occupancy) was 0.0744. With AAGGACCG the figure was 0.0673. In the case of TCCTATCA, the binding signal (normalized occupancy) was found to be 0.077. Consider CAGGCTTA, for which the binding signal (normalized occupancy) turned out to be 0.0703. For AAGACCAC, the binding signal (normalized occupancy) was found to be 0.0774. Turning to GAGATTTA, the binding signal (normalized occupancy) turned out to be 0.0689. With TATCGCGA the figure was 0.0693; with ACGACCAC, 0.0818.

GACGACTC: the binding signal (normalized occupancy) was 0.0761. As for ATCTGGCA, the binding signal (normalized occupancy) stood at 0.0751. With GCACTGTA the figure was 0.0737. As for TCGCGGAA, the binding signal (normalized occupancy) turned out to be 0.075.

For the sequence AAACAGAA, the binding signal (normalized occupancy) amounted to 0.0757. Turning to AATAGGAG, the binding signal (normalized occupancy) came to 0.0729. As to AAGAAAGG, the binding signal (normalized occupancy) turned out to be 0.0765. As for TAGCGAGA, the binding signal (normalized occupancy) stood at 0.0664.

With AAGCCTAC, the binding signal (normalized occupancy) amounted to 0.0679. The same measure for CCTCATCG: 0.0777; for AGCATAAC: 0.0787; for CAGTAGGC: 0.0685. On to AAGCTAAC, for which the binding signal (normalized occupancy) came to 0.0782. Consider CTTTCTCC, for which the binding signal (normalized occupancy) came out at 0.0722. In the case of ACTAAAAG, the binding signal (normalized occupancy) was 0.0739. With GAAACCAA the figure was 0.0737; with GAAGGGCC, 0.0721. The same measure for AACTAGTG: 0.0723; for GCCCGAGA: 0.0669. With ACCAGTCA, the binding signal (normalized occupancy) came out at 0.0791. Consider TACGGATA, for which the binding signal (normalized occupancy) is 0.0812. Take AATGTTGT: the binding signal (normalized occupancy) amounted to 0.0807. With CTTACCAC, the binding signal (normalized occupancy) is 0.0815.

For AAGCCCAT, the binding signal (normalized occupancy) amounted to 0.0734. For CACACACA, the binding signal (normalized occupancy) is 0.087. On to GTCGATGA, for which the binding signal (normalized occupancy) came to 0.0779. In the case of TCCAGGCA, the binding signal (normalized occupancy) is 0.0758. Regarding ATAGAAGG, the binding signal (normalized occupancy) amounted to 0.0772. CGCGACAA: the binding signal (normalized occupancy) was 0.0699.

For the sequence TGGTCAAA, the binding signal (normalized occupancy) was found to be 0.0812.

In the case of GGGTCGCA, the binding signal (normalized occupancy) is 0.0783.

Consider GGTCGCGA, for which the binding signal (normalized occupancy) came to 0.0731. Take ATGGAAAA: the binding signal (normalized occupancy) was determined as 0.0795. For the sequence CGCTTCCA, the binding signal (normalized occupancy) was 0.0758. As to ACTCATCA, the binding signal (normalized occupancy) worked out at 0.0768. Consider AGGCCGCG, for which the binding signal (normalized occupancy) was determined as 0.0705. Turning to CATGAACA, the binding signal (normalized occupancy) is 0.0847. With AGATCACC the figure was 0.0721; with AAACGTCA, 0.0777. With AGGGGTCC, the binding signal (normalized occupancy) was 0.0701. As for GGGGTCTA, the binding signal (normalized occupancy) was 0.0781. As to ATGCAGTC, the binding signal (normalized occupancy) was 0.0796. The same measure for ACTAGCCT: 0.0726. On to AAGCTCGA, for which the binding signal (normalized occupancy) came to 0.0705. With ATCAGTAA, the binding signal (normalized occupancy) stood at 0.0725.

For the sequence CATGTAAA, the binding signal (normalized occupancy) came out at 0.0785. For TCTAAGCA, the binding signal (normalized occupancy) is 0.0764.

Consider CCTATATA, for which the binding signal (normalized occupancy) was 0.0837. Regarding GCCGCCGA, the binding signal (normalized occupancy) was determined as 0.0703. On to CCCTCGCA, for which the binding signal (normalized occupancy) stood at 0.0775. Regarding ATTACAGA, the binding signal (normalized occupancy) came to 0.0815. With CTAACGAG the figure was 0.0739; with AAGTTGTG, 0.0757.

As to AAGTCGCC, the binding signal (normalized occupancy) was determined as 0.067. With ATACGTCC, the binding signal (normalized occupancy) was found to be 0.0753.

In the case of AACAATTC, the binding signal (normalized occupancy) amounted to 0.0737. ACATCGGG: the binding signal (normalized occupancy) stood at 0.0755. The same measure for CATGGGAC: 0.0894; for AGACTTAG: 0.0709.
